Source: the supplement of paper PMC8728848
The list shows a part of the results.

Key:
Test in all cases: glycan array binding signal (z-score within array); higher = stronger binding
Conditions in all cases: glycan notation: IUPAC condensed, linker removed; mutation: N288D, K313I
[1] = biological target: Neu5Ac(a2-3)Gal(b1-4)GlcNAc(b1-3)[Neu5Ac(a2-3)Gal(b1-4)GlcNAc(b1-6)]GalNAc
How it was run: (§1)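 The binding signal is a Z-score computed within each array. Data were drawn from 3228 arrays in the Consortium for Functional Glycomics database, restricted to those with a known protein sequence. Scores were averaged over arrays of the same protein sequence at different concentrations or buffers, and over linkers, and negative values can be taken as non-binding.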

[2] = biological target: Neu5Ac(a2-3)Gal(b1-4)GlcNAc(b1-6)GalNAc
How it was run: as §1

[3] = biological target: Neu5Ac(a2-3)Gal(b1-4)GlcNAc(b1-6)[Gal(b1-3)]GalNAc
How it was run: as §1

[4] = biological target: Neu5Ac(a2-3)Gal(b1-4)GlcNAc(b1-6)[Neu5Ac(a2-3)Gal(b1-3)]GalNAc
How it was run: as §1

[5] = biological target: Neu5Ac(a2-3)Gal(b1-4)GlcNAc6S
How it was run: as §1

[6] = biological target: Neu5Ac(a2-3)Gal(b1-4)[Fuc(a1-3)]GlcNAc
How it was run: as §1

[7] = biological target: Neu5Ac(a2-3)Gal(b1-4)[Fuc(a1-3)]GlcNAc(b1-2)Man
How it was run: as §1

[8] = biological target: Neu5Ac(a2-3)Gal(b1-4)[Fuc(a1-3)]GlcNAc(b1-3)Gal
How it was run: as §1

[9] = biological target: Neu5Ac(a2-3)Gal(b1-4)[Fuc(a1-3)]GlcNAc(b1-3)Gal(b1-4)GlcNAc
How it was run: as §1

[10] = biological target: Neu5Ac(a2-3)Gal(b1-4)[Fuc(a1-3)]GlcNAc(b1-3)Gal(b1-4)[Fuc(a1-3)]GlcNAc(b1-3)Gal(b1-4)[Fuc(a1-3)]GlcNAc
How it was run: as §1

[11] = biological target: Neu5Ac(a2-3)Gal(b1-4)[Fuc(a1-3)]GlcNAc(b1-3)GalNAc
How it was run: as §1

[12] = biological target: Neu5Ac(a2-3)Gal(b1-4)[Fuc(a1-3)]GlcNAc(b1-6)[Gal(b1-3)]GalNAc
How it was run: as §1

[13] = biological target: Neu5Ac(a2-3)Gal(b1-4)[Fuc(a1-3)]GlcNAc(b1-6)[Neu5Ac(a2-3)Gal(b1-3)]GalNAc
How it was run: as §1

[14] = biological target: Neu5Ac(a2-3)Gal(b1-4)[Fuc(a1-3)]GlcNAc6S
How it was run: as §1

[15] = biological target: Neu5Ac(a2-3)Gal6S(b1-4)GlcNAc
How it was run: as §1

[16] = biological target: Neu5Ac(a2-3)Gal6S(b1-4)[Fuc(a1-3)]GlcNAc
How it was run: as §1

Neu5Ac(a2-3)GalNAc = biological target: Neu5Ac(a2-3)GalNAc
How it was run: as §1

[17] = biological target: Neu5Ac(a2-3)GalNAc(b1-4)GlcNAc
How it was run: as §1

[18] = biological target: Neu5Ac(a2-3)[GalNAc(b1-4)]Gal(b1-4)Glc
How it was run: as §1

[19] = biological target: Neu5Ac(a2-3)[GalNAc(b1-4)]Gal(b1-4)GlcNAc
How it was run: as §1

[20] = biological target: Neu5Ac(a2-3)[GalNAc(b1-4)]Gal(b1-4)GlcNAc(b1-3)GalNAc
How it was run: as §1

[21] = biological target: Neu5Ac(a2-3)[Neu5Ac(a2-6)]GalNAc
How it was run: as §1

Neu5Ac(a2-6)Gal = biological target: Neu5Ac(a2-6)Gal
How it was run: as §1

[22] = biological target: Neu5Ac(a2-6)Gal(b1-3)GlcNAc(b1-3)[Gal(b1-4)GlcNAc(b1-6)]Gal(b1-4)Glc
How it was run: as §1

Neu5Ac(a2-6)Gal(b1-4)Glc = biological target: Neu5Ac(a2-6)Gal(b1-4)Glc
How it was run: as §1

[23] = biological target: Neu5Ac(a2-6)Gal(b1-4)GlcNAc
How it was run: as §1

[24] = biological target: Neu5Ac(a2-6)Gal(b1-4)GlcNAc(b1-2)Man
How it was run: as §1

[25] = biological target: Neu5Ac(a2-6)Gal(b1-4)GlcNAc(b1-2)Man(a1-3)Man(b1-4)GlcNAc(b1-4)GlcNAc
How it was run: as §1

[26] = biological target: Neu5Ac(a2-6)Gal(b1-4)GlcNAc(b1-2)Man(a1-3)[Gal(b1-4)GlcNAc(b1-2)Man(a1-6)]Man(b1-4)GlcNAc(b1-4)GlcNAc
How it was run: as §1

[27] = biological target: Neu5Ac(a2-6)Gal(b1-4)GlcNAc(b1-2)Man(a1-3)[GlcNAc(b1-2)Man(a1-6)]Man(b1-4)GlcNAc(b1-4)GlcNAc
How it was run: as §1

[28] = biological target: Neu5Ac(a2-6)Gal(b1-4)GlcNAc(b1-2)Man(a1-3)[GlcNAc(b1-4)][Neu5Ac(a2-6)Gal(b1-4)GlcNAc(b1-2)Man(a1-6)]Man(b1-4)GlcNAc(b1-4)GlcNAc
How it was run: as §1

[29] = biological target: Neu5Ac(a2-6)Gal(b1-4)GlcNAc(b1-2)Man(a1-3)[Man(a1-6)]Man(b1-4)GlcNAc(b1-4)GlcNAc
How it was run: as §1

[30] = biological target: Neu5Ac(a2-6)Gal(b1-4)GlcNAc(b1-2)Man(a1-3)[Neu5Ac(a2-3)Gal(b1-4)GlcNAc(b1-2)Man(a1-6)]Man(b1-4)GlcNAc(b1-4)GlcNAc
How it was run: as §1

[31] = biological target: Neu5Ac(a2-6)Gal(b1-4)GlcNAc(b1-2)Man(a1-3)[Neu5Ac(a2-6)Gal(b1-4)GlcNAc(b1-2)Man(a1-6)]Man(b1-4)GlcNAc(b1-4)GlcNAc
How it was run: as §1

[32] = biological target: Neu5Ac(a2-6)Gal(b1-4)GlcNAc(b1-2)Man(a1-3)[Neu5Ac(a2-6)Gal(b1-4)GlcNAc(b1-2)Man(a1-6)]Man(b1-4)GlcNAc(b1-4)[Fuc(a1-6)]GlcNAc
How it was run: as §1

[33] = biological target: Neu5Ac(a2-6)Gal(b1-4)GlcNAc(b1-2)Man(a1-6)Man(b1-4)GlcNAc(b1-4)GlcNAc
How it was run: as §1

[34] = biological target: Neu5Ac(a2-6)Gal(b1-4)GlcNAc(b1-2)Man(a1-6)[Gal(b1-4)GlcNAc(b1-2)Man(a1-3)]Man(b1-4)GlcNAc(b1-4)GlcNAc
How it was run: as §1

[35] = biological target: Neu5Ac(a2-6)Gal(b1-4)GlcNAc(b1-2)Man(a1-6)[GlcNAc(b1-2)Man(a1-3)]Man(b1-4)GlcNAc(b1-4)GlcNAc
How it was run: as §1

[36] = biological target: Neu5Ac(a2-6)Gal(b1-4)GlcNAc(b1-2)Man(a1-6)[Man(a1-3)]Man(b1-4)GlcNAc(b1-4)GlcNAc
How it was run: as §1

[37] = biological target: Neu5Ac(a2-6)Gal(b1-4)GlcNAc(b1-2)[Neu5Ac(a2-6)Gal(b1-4)GlcNAc(b1-4)]Man(a1-3)[GlcNAc(b1-4)][Neu5Ac(a2-6)Gal(b1-4)GlcNAc(b1-2)[Neu5Ac(a2-6)Gal(b1-4)GlcNAc(b1-6)]Man(a1-6)]Man(b1-4)GlcNAc(b1-4)GlcNAc
How it was run: as §1

[38] = biological target: Neu5Ac(a2-6)Gal(b1-4)GlcNAc(b1-2)[Neu5Ac(a2-6)Gal(b1-4)GlcNAc(b1-4)]Man(a1-3)[GlcNAc(b1-4)][Neu5Ac(a2-6)Gal(b1-4)GlcNAc(b1-4)Man(a1-6)]Man(b1-4)GlcNAc(b1-4)GlcNAc
How it was run: as §1

[39] = biological target: Neu5Ac(a2-6)Gal(b1-4)GlcNAc(b1-2)[Neu5Ac(a2-6)Gal(b1-4)GlcNAc(b1-6)]Man(a1-6)[Neu5Ac(a2-6)Gal(b1-4)GlcNAc(b1-2)Man(a1-3)][GlcNAc(b1-4)]Man(b1-4)GlcNAc(b1-4)GlcNAc
How it was run: as §1

[40] = biological target: Neu5Ac(a2-6)Gal(b1-4)GlcNAc(b1-3)Gal(b1-3)GlcNAc
How it was run: as §1

[41] = biological target: Neu5Ac(a2-6)Gal(b1-4)GlcNAc(b1-3)Gal(b1-4)GlcNAc
How it was run: as §1

[42] = biological target: Neu5Ac(a2-6)Gal(b1-4)GlcNAc(b1-3)Gal(b1-4)GlcNAc(b1-2)Man(a1-3)[Neu5Ac(a2-6)Gal(b1-4)GlcNAc(b1-3)Gal(b1-4)GlcNAc(b1-2)Man(a1-6)]GalNAc
How it was run: as §1

[43] = biological target: Neu5Ac(a2-6)Gal(b1-4)GlcNAc(b1-3)Gal(b1-4)GlcNAc(b1-3)Gal(b1-4)GlcNAc
How it was run: as §1

B1: Langerin (Homo sapiens), Q9UJ71 (protein)
chain: STLNAQIPELKSDLEKASALNTKIRALQGSLENMSKLLKRQNDILQVVSQGWKYFKGNFYYFSLIPKTWYSAEQFCVSRNSHLTSVTSESEQEFLYKTAGGLIYWIGLTKAGMEGDWSWVDDTPFNKVQSARFWIPGEPNDAGNNEHCGNIKAPSLQAWNDAPCDITFLFICKRPYVPSEP
glycan array binding signal (z-score) [1]: 0.075
glycan array binding signal (z-score) [2]: -0.165
glycan array binding signal (z-score) [3]: -0.298
glycan array binding signal (z-score) [4]: -0.09
glycan array binding signal (z-score) [5]: -0.294
glycan array binding signal (z-score) [6]: -0.265
glycan array binding signal (z-score) [7]: -0.159
glycan array binding signal (z-score) [8]: -0.338
glycan array binding signal (z-score) [9]: -0.02
glycan array binding signal (z-score) [10]: 0.101
glycan array binding signal (z-score) [11]: 0.034
glycan array binding signal (z-score) [12]: 0.107
glycan array binding signal (z-score) [13]: -0.125
glycan array binding signal (z-score) [14]: -0.369
glycan array binding signal (z-score) [15]: -0.223
glycan array binding signal (z-score) [16]: -0.213
glycan array binding signal (z-score) (Neu5Ac(a2-3)GalNAc): -0.35
glycan array binding signal (z-score) [17]: -0.179
glycan array binding signal (z-score) [18]: -0.304
glycan array binding signal (z-score) [19]: -0.079
glycan array binding signal (z-score) [20]: -0.084
glycan array binding signal (z-score) [21]: -0.291
glycan array binding signal (z-score) (Neu5Ac(a2-6)Gal): -0.24
glycan array binding signal (z-score) [22]: -0.202
glycan array binding signal (z-score) (Neu5Ac(a2-6)Gal(b1-4)Glc): -0.182
glycan array binding signal (z-score) [23]: -0.343
glycan array binding signal (z-score) [24]: -0.109
glycan array binding signal (z-score) [25]: -0.115
glycan array binding signal (z-score) [26]: -0.022
glycan array binding signal (z-score) [27]: -0.325
glycan array binding signal (z-score) [28]: -0.29
glycan array binding signal (z-score) [29]: -0.2
glycan array binding signal (z-score) [30]: -0.156
glycan array binding signal (z-score) [31]: -0.15
glycan array binding signal (z-score) [32]: -0.182
glycan array binding signal (z-score) [33]: -0.131
glycan array binding signal (z-score) [34]: -0.158
glycan array binding signal (z-score) [35]: -0.278
glycan array binding signal (z-score) [36]: -0.187
glycan array binding signal (z-score) [37]: -0.271
glycan array binding signal (z-score) [38]: -0.228
glycan array binding signal (z-score) [39]: -0.1
glycan array binding signal (z-score) [40]: -0.267
glycan array binding signal (z-score) [41]: -0.353
glycan array binding signal (z-score) [42]: -0.052
glycan array binding signal (z-score) [43]: -0.299
